Test results from PubChem BioAssay AID485364 (National Center for Advancing Translational Sciences (NCATS), 2010).
Screen size: about 360,000 compounds; about 11,000 (3.1%) were called active. Inconclusive means that the source gave no clear call. Such entries were picked first, then a sample of the others. Calls follow the shape of the dose curve; as a rule, active = well fitted inhibition curve with a large enough effect; inconclusive = small, poorly fitted or top-dose-only effect; inactive = no such curve, though single readings can be large or run the other way. Potencies of inconclusive entries are left out as doubtful fits.

Target: Schistosoma mansoni thioredoxin glutathione reductase (TGR) (UniProt Q962Y6)
Test: qHTS Assay for the Inhibitors of Schistosoma Mansoni Peroxiredoxins; also: nearly all actives have a fitted effect of over 60% in size
Conditions: purified TGR, DTNB reduction, TNB absorbance 405 nm; series mostly up to 114 µM
In short: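 First, TGR (20 nM dispensed) and NADPH were mixed with compound. Second, a 15 min room-temperature incubation followed. Third, further NADPH and then DTNB were added to start the reaction. Finally, TNB absorbance was monitored kinetically.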
Potency is read from the fitted curve at half-maximal effect; tags tell the direction and shape of the fitted curve.

SMILES | Potency
CCN(CC)C(=O)COCc1cc(-c2ccc3c(c2)OCO3)on1 | inactive
CN(Cc1ccccc1)C(=O)Cn1ncc2c3ccccc3n(Cc3cccc(Cl)c3)c2c1=O | inactive
Cn1c2c(c(=O)n(C)c1=O)C1(C(=O)Nc3ccccc31)C(C#N)=C(N)O2 (centres undefined) | inconclusive [inhibitor, partial curve]
COc1ccc(N2C(=O)CC(Sc3nc(C)cc(C)c3C#N)C2=O)cc1 (centres undefined) | inconclusive [inhibitor, partial curve]
Cc1ccc(C(=O)CCNc2ccccc2)o1 | active: 25.1 µM
O=C1NC(c2cccc([N+](=O)[O-])c2)=CCN1c1ccccc1O | active: 44.7 µM
CCCNC(=O)CN1CCN(S(=O)(=O)c2ccc(Br)s2)CC1 | inconclusive [inhibitor, partial curve]
Cc1ccc2nc(SCc3nc(-c4ccccc4C)no3)[nH]c2c1 | inactive
N#CC(C#N)=Cc1ccc(O)c(O)c1 | active: 1.41 µM
CC(C)[C@H]1C(=O)N2CCC[C@H]2[C@]2(O)O[C@](NC(=O)[C@@H]3C=C4c5cccc6[nH]cc(c56)C[C@H]4N(C)C3)(C(C)C)C(=O)N12 | active: 7.94 µM
COc1cc(OC)c(C(=O)COc2ncnc3ccccc23)c(OC)c1 | inactive
Cc1ccc(-n2c(=O)c3ccc(C(=O)NCc4ccccc4Cl)cc3n(Cc3cccc(F)c3)c2=O)cc1 | inconclusive [inhibitor, single point]
Cc1ccc(Cn2c(=O)c3c(ncn3C)n(C)c2=O)cc1 | inconclusive [inhibitor, full curve, poor fit]
O=[N+]([O-])c1cc(Cl)c(O)c2ncccc12 | active: 11.2 µM
O=C(/C=C/c1ccc(Br)o1)Nc1nccs1 | active: 3.16 µM
COC(=O)c1cccc(C23CC4(C2)[C@H](CN(Cc2ccc(-c5ccccc5)cc2)[C@@H]4c2ccccc2)C3c2ccccc2)c1 (some centres undefined) | inconclusive [inhibitor, partial curve]
COc1cc(CNc2ccccc2SC)ccc1O | active: 2.24 µM
CN1CC(=O)N(CC(=O)Nc2cc(Cl)cc(Cl)c2)C1=O | inconclusive [inhibitor, full curve]
COc1ccc(NC2CCCN(C(=O)CCc3ccncc3)C2)cc1OC (centres undefined) | inconclusive [inhibitor, single point]
O=C1CC(N2CCN(c3ccc(Cl)cc3)CC2)C(=O)N1c1ccccc1 (centres undefined) | inconclusive [inhibitor, partial curve]
O=C(NC(=S)Nc1ccc(N2CCCC2)cc1)c1ccccc1[N+](=O)[O-] | inactive
COc1cc(C2C(C(=O)c3ccc(C)o3)=C(O)C(=O)N2CCN2CCOCC2)ccc1OCCC(C)C (centres undefined) | inconclusive [inhibitor, partial curve]
COC/C=C/C1=CC2=CC(=O)C(C)(OC(=O)c3cnc4ccccc4n3)C(=O)C2=CN1C1CCCCC1 (centres undefined) | inconclusive [inhibitor, full curve]
CCOC(=O)CN(Cc1ccccc1)C(C(=O)NC1CCCCC1)c1ccccc1 (centres undefined) | inactive
O=C(CN1CCN(CCN2C(=O)c3cccc4cccc(c34)C2=O)CC1)c1ccc(F)cc1 | inconclusive [inhibitor, single point]

SMILES | Potency
CCCn1c(N)c(C(=O)CN(C)CC(=O)Nc2c(C)cc(C)cc2C)c(=O)[nH]c1=O | inactive
COc1ccc(NC(=O)COc2ccccc2Cc2ccccc2)cc1S(=O)(=O)N1CCOCC1 | inconclusive [inhibitor, partial curve]
C1CCN(C2CCN(c3nc4nonc4nc3N3CCSCC3)CC2)C1 | inconclusive [inhibitor, full curve]
NS(=O)(=O)c1ccc(NC(=O)CSc2ccccn2)cc1 | inactive
COc1ccc([N+](=O)[O-])c(S(=O)(=O)c2ccc(Cl)cc2)n1 | inconclusive [inhibitor, full curve, poor fit]
COc1ccc(-c2ccc(CCC(=O)O)n2-c2ccccc2C(F)(F)F)cc1 | inconclusive [inhibitor, partial curve]
CC1(C)CC(=O)C(CC(=O)N2CCC(Cc3ccccc3)CC2)C(=O)C1 | inconclusive [inhibitor, partial curve]
O=C1NC(=O)C(=Cc2ccc(-c3ccc(S(=O)(=O)N4CCOCC4)cc3)o2)C(=O)N1 | inconclusive [inhibitor, partial curve, poor fit]
CCCSc1ncc(Cl)c(C(=O)Nc2ccc(S(=O)(=O)N3CCCCC3C)cc2)n1 (centres undefined) | inconclusive [inhibitor, single point]
CCCC(O)(CCC)C(=O)NN(C(=O)CCl)c1ccccc1 | active: 11.2 µM
COc1cc(C(C2C(=O)CC(C)(C)CC2=O)C2C(=O)CC(C)(C)CC2=O)ccc1O | inconclusive [inhibitor, partial curve]
COc1ccc2nc(NC(=O)CSc3nnc(C)n3N)sc2c1 | inconclusive [inhibitor, full curve]
Cc1ccc(NC(=O)Cn2nnc(-c3ccccc3NC(=O)c3cccs3)n2)cc1 | inactive
O=C(NC1CCCCCC1)c1ccc(CS(=O)(=O)Cc2ccccc2F)o1 | active: 22.4 µM
CN(C(=O)COC(=O)CNC(=O)C1CCCCC1)c1ccccc1 | inconclusive [inhibitor, single point]
CCOC(=O)c1ccc(CNC(=O)C2CCCCC2C(=O)OCC(F)(F)F)o1 (centres undefined) | inconclusive [inhibitor, partial curve]
Cc1oc2c(O)c(O)ccc2c(=O)c1-c1cnn(-c2ccccc2)c1 | inactive
C/C=C\C=C\C(=O)N1CC2(CC(c3cccc(NC(=O)CC)c3)=NO2)C[C@H]1C(N)=O (some centres undefined) | active: 2.51 µM
COc1ccc(C(=O)N(c2ccc(OC)cc2)S(=O)(=O)c2ccc3c(c2)n(C)c(=O)n3C)cc1 | inactive
O=C(/C=C/c1ccco1)NC(=S)Nc1ccccn1 | active: 8.91 µM
Cc1cc2cc(CCNC(=O)C3c4ccccc4Oc4ccccc43)c(=O)[nH]c2cc1C | inactive
COc1ccccc1NC(=S)NC(=O)CCCOc1ccc(Cl)cc1Cl | inconclusive [inhibitor, partial curve]
CCn1cc(CN2CCC(C(=O)Nc3cccc(-c4cscn4)c3)CC2)cn1 | inactive
Cc1ccc(NC(=O)CC2SC(=O)N(c3ccccc3)C2=O)cc1 (centres undefined) | inconclusive [inhibitor, full curve, poor fit]
Cc1ccc(/C=C2/NC(=O)N(Cc3ccccc3)C2=O)o1 | active: 22.4 µM

SMILES | Potency
CCOC(=O)N1CCC(NC(=O)CC2C(=O)NCCN2Cc2ccc(C)cc2)CC1 (centres undefined) | inconclusive [inhibitor, partial curve, poor fit]
COc1cccc(NC(=O)Cn2c(=O)n(CCc3ccccc3)c(=O)c3c4c(sc32)CN(C(C)=O)CC4)c1 | inactive
COc1cc(CN2CCCCCC2)cc(Br)c1O | inconclusive [inhibitor, partial curve]
COc1ccc(NC(=O)COC(=O)c2cc(Cl)ccc2O)cc1S(=O)(=O)N1CCCCC1 | inactive
Cc1cccc(CC(=O)NC2CCCCCC2)c1 | inactive
COc1cccc(C(=O)c2cn(CC(=O)NCCc3ccccc3)c3nc(C)ccc3c2=O)c1 | inactive
COc1cc2c(cc1OC)CN(C(=O)c1ccco1)CC2 | inconclusive [inhibitor, partial curve]
CC1(C)CC(=O)C2=C(C1)N(c1cccc(O)c1)C1=C(C2)C(=O)CC(C)(C)C1 | active: 31.6 µM
NC(=O)C1CN(S(=O)(=O)c2ccc(Cl)cc2F)c2ccccc2O1 (centres undefined) | active: 39.8 µM
O=[N+]([O-])c1cc(F)c2cccnc2c1O | active: 3.16 µM
O=C1NC(c2cccs2)Nc2sc3c(c21)CCCC3 (centres undefined) | active: 28.2 µM
Cn1c(Cc2ccc3c(c2)OCO3)nnc1SCC(=O)N1CCc2ccccc2C1 | active: 44.7 µM
Cc1ccc(-n2nc(-c3ccc(N)cc3)cc2N)cc1 | inactive
CCOC(=O)CC(NC(=O)c1cc2cc(Cl)ccc2oc1=O)c1ccc(C)cc1 (centres undefined) | inconclusive [inhibitor, single point]
COc1ccc(OC)c(NC(=O)CSc2n[nH]c(-c3ccccc3Cl)n2)c1 | inactive
O=C1OC(c2ccc(Cl)cc2)=N/C1=C\C=C\c1ccco1 | active: 28.2 µM
COc1cccc(CNC(=O)CS(=O)(=O)Cc2nc(-c3ccc(C)cc3)oc2C)c1OC | inconclusive [inhibitor, partial curve]
CCc1c(C(=O)N2CCCN(C)CC2)csc1C | inconclusive [inhibitor, partial curve]
Cc1nnsc1S(=O)c1ccc(Cl)c(Cl)c1 (centres undefined) | inconclusive [inhibitor, partial curve]
Cc1c(Cl)c(-c2n[nH]c(=S)n2Cc2ccco2)nn1C | inactive
Cc1cc(C(=O)CSc2n[nH]c(N)n2)c(C)n1-c1ccc2c(c1)OCO2 | inactive
CCC(Oc1ccccc1)C(=O)Nc1ccccc1C(=O)N1CCCCC1 (centres undefined) | inactive
NC(=O)C1CCN(C2=C(NS(=O)(=O)c3ccc(Cl)cc3)C(=O)c3ccccc3C2=O)CC1 | active: 11.2 µM
Cc1ccccc1N(C(=O)Cn1nnc2ccccc21)C(C(=O)NCc1ccco1)c1ccncc1 (centres undefined) | inconclusive [inhibitor, single point]
